# Tests used:
# [1] = test system: non-tumor BPH1 cells; assay: Binding to the surface of non-tumor cells
# [2] = test system: RPMI8226, MM.1S, MM.1R, and INA6 multiple myeloma cells; assay: Binding to the surface of multiple myeloma cells
# [3] = test system: LnCap-C4-2B, LnCap-C4, DU145, PC3-luc, and Hs27 prostate cancer cells; assay: Binding to the surface of prostate cancer cells
molecule,measurement,setting,value
"YS5FL: human anti-CD46 antibody; VH SEQ ID NO: 1/86, VL SEQ ID NO: 22/87; HC 88, LC 89 (antibody, human anti-CD46 antibody; HC 88, LC 89) heavy: QVQLVQSGGGVVQPGRSLRLACAASGLTVNNYAMHWVRQAPGKGLEWVAVISYDGNNKYYADSVKGRFTISRDNSKNTLYLQMNSLRAEDTAVYYCAKGGGYFDLWGRGTLVTVSS[human IgG1 constant region left out] light: QSVLTQPPSVSGAPGQRVTISCTGSSSNIGAGYDVHWYQQLPGTAPKLLIYGNNNRPSGVPDRFSGSKSGTSASLAITGLQAEDEADYYCSSYTSGTWLFGGGTKLTVLGQPKAAPSVTLFPPSSEELQANKATLVCLISDFYPGAVTVAWKADSSPVKAGVETTTPSKQSNNKYAASSYLSLTPEQWKSHRSYSCQVTHEGSTVEKTVAPTECS",binding to cell surface,[1],not to non-tumor BPH1 cells
same,binding to cell surface,[2],binds specifically
same,binding to cell surface,[3],bind specifically
